Assay results: patent US7579371B2, “Methods of using [3.2.0] heterocyclic compounds and analogs thereof” (Nereus Pharmaceuticals, Inc., priority 2004, dated 2009)

System: RAW264.7 cells
Conditions: mouse, 12 nM, no LeTx

## C[C@@]12OC(=O)[C@]1([C@@H](O)[C@@H]1C=CCCC1)NC(=O)[C@@H]2CCCl [Formula II-16, Salinosporamide A]
  viability, compound alone: 96%
